Results on 153 variants are retold here after a collection of fitness landscapes (doi:10.1016/j.celrep.2020.107928).

B1: Caulobacter ParB omega fusion; a variant is named by its letters at X, in order, B8GW30 (parent)
chain: MESVVVGEPGMSEGRRGLGRGLSALLGEVDAAPAQAPGEQLGGSREAPIEILQRNPDQPRRTFREEDLEDLSNSIREKGVLQPILVRPSPDTAGEYQIVAGERAWRAAQRAGLKTVPIMVRELDDLAVLEIGIIENVQRADLNVLEEALSYKVLMEKFERTQENIAQTIGKSXSHVANXMRLLXLPDEVQSYLVSGELTAXHARAIAAAADPVALAKQIIEGGLSVRETEALARKAPNLSAGKSKGGRPPRVKDTDTQALESDLSSVLGLDVSIDHRGSTGTLTITYATLEQLDDLCNRLTRGI

The full ranking holds about 81,000 sequences; the median of “one-hybrid fitness for binding NBS DNA” is about -0.1, and the highest 2% start at about 0.36. This is one part of the list.

The variants in the assay derive from B1. Kind of assay: one-hybrid fitness for binding NBS DNA (the Noc-binding site; scaled: cognate 1, non-cognate 0); higher = stronger binding. The note with it: with NBS DNA site. The essentials: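 On M9-minus-histidine containing 0.1 mM IPTG and 5 mM 3-AT, E. coli USO cells with a HIS3 reporter, site 19 bp from the promoter, grew 48 hours at 37°C to select Caulobacter ParB libraries randomised at four specificity codons. Plasmids from before and after were Illumina-sequenced, with three replicate libraries pooled and variants under 10 reads left out. Fitness is the log change in variant-to-wild-type read ratio, rescaled against cognate and non-cognate.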
With RPNY, the “one-hybrid fitness for binding NBS DNA” value was at most 0.2. Turning to MTKR, the “one-hybrid fitness for binding NBS DNA” value turned out to be 0.259. LLPT: the “one-hybrid fitness for binding NBS DNA” value is at most 0.2. As for CYYP, the “one-hybrid fitness for binding NBS DNA” value is at most 0.2. For the variant RATF, the “one-hybrid fitness for binding NBS DNA” value is at most 0.2. With KPCR, the “one-hybrid fitness for binding NBS DNA” value was at most 0.2. With NCRT, the “one-hybrid fitness for binding NBS DNA” value was at most 0.2. As to LHPN, the “one-hybrid fitness for binding NBS DNA” value is at most 0.2. For the variant PAKN, the “one-hybrid fitness for binding NBS DNA” value was at most 0.2. As for QPRE, the “one-hybrid fitness for binding NBS DNA” value is at most 0.2.

Regarding QYAL, the “one-hybrid fitness for binding NBS DNA” value is at most 0.2. The figure for GMLL is at most 0.2; for PPQC it is at most 0.2; for RLPS it is at most 0.2. Then SQPW, with at most 0.2. Then PVPM, with at most 0.2; and LLCI, with at most 0.2. HNHN: the “one-hybrid fitness for binding NBS DNA” value is at most 0.2. Take KCRL: the “one-hybrid fitness for binding NBS DNA” value is at most 0.2.

For the variant LTFR, the “one-hybrid fitness for binding NBS DNA” value is at most 0.2. For the variant LQHD, the “one-hybrid fitness for binding NBS DNA” value is at most 0.2. Then WMRI, with at most 0.2. Then HSMY, with at most 0.2; and TFFG, with at most 0.2. As to TTSQ, the “one-hybrid fitness for binding NBS DNA” value is at most 0.2.

On to DRQY, for which the “one-hybrid fitness for binding NBS DNA” value is at most 0.2.

As to HDLG, the “one-hybrid fitness for binding NBS DNA” value was at most 0.2. As to GSVG, the “one-hybrid fitness for binding NBS DNA” value was at most 0.2. Then DTTM, with at most 0.2. Consider TAVW, for which the “one-hybrid fitness for binding NBS DNA” value was at most 0.2. As for HGNG, the “one-hybrid fitness for binding NBS DNA” value is at most 0.2. Take ATKT: the “one-hybrid fitness for binding NBS DNA” value was at most 0.2. Consider FSTE, for which the “one-hybrid fitness for binding NBS DNA” value was at most 0.2. RIMA: the “one-hybrid fitness for binding NBS DNA” value is at most 0.2. With IYMT, the “one-hybrid fitness for binding NBS DNA” value is at most 0.2. Turning to VSKV, the “one-hybrid fitness for binding NBS DNA” value was at most 0.2. Then SVTW, with at most 0.2.

With ASWR, the “one-hybrid fitness for binding NBS DNA” value is at most 0.2. As for CCHG, the “one-hybrid fitness for binding NBS DNA” value is at most 0.2. RLKP: the “one-hybrid fitness for binding NBS DNA” value is at most 0.2. For KRCN, the “one-hybrid fitness for binding NBS DNA” value was at most 0.2. The figure for HPLR is at most 0.2; for HTTG it is at most 0.2.

In the case of WVPV, the “one-hybrid fitness for binding NBS DNA” value was at most 0.2. Take CHVR: the “one-hybrid fitness for binding NBS DNA” value was at most 0.2. The figure for HRVP is at most 0.2; for PTNL it is at most 0.2; for SDGY it is at most 0.2.

In the case of PVKS, the “one-hybrid fitness for binding NBS DNA” value is at most 0.2. Then WDTY, with at most 0.2; and RASP, with at most 0.2. In the case of RATD, the “one-hybrid fitness for binding NBS DNA” value was at most 0.2. Then THYV, with at most 0.2.

Consider ATPC, for which the “one-hybrid fitness for binding NBS DNA” value was at most 0.2. YYTI: the “one-hybrid fitness for binding NBS DNA” value is at most 0.2.

Regarding PHYM, the “one-hybrid fitness for binding NBS DNA” value is at most 0.2. As to HRRH, the “one-hybrid fitness for binding NBS DNA” value is at most 0.2. Then NNPV, with at most 0.2; and YPEL, with at most 0.2; and PEPH, with at most 0.2. On to RYTK, for which the “one-hybrid fitness for binding NBS DNA” value was at most 0.2.

Turning to KKGS, the “one-hybrid fitness for binding NBS DNA” value was at most 0.2. The figure for RQFI is at most 0.2. FKHM: the “one-hybrid fitness for binding NBS DNA” value is at most 0.2. The figure for HIIR is at most 0.2. Take PFHY: the “one-hybrid fitness for binding NBS DNA” value is at most 0.2.

Turning to ACDK, the “one-hybrid fitness for binding NBS DNA” value is at most 0.2. With LEKF, the “one-hybrid fitness for binding NBS DNA” value was at most 0.2. Take QFAS: the “one-hybrid fitness for binding NBS DNA” value is at most 0.2. Then VDMR, with at most 0.2.

For PCGY, the “one-hybrid fitness for binding NBS DNA” value was at most 0.2. Then GSSC, with at most 0.2. With DWLR, the “one-hybrid fitness for binding NBS DNA” value was at most 0.2. As for EITM, the “one-hybrid fitness for binding NBS DNA” value is at most 0.2. Then VSEC, with at most 0.2; and TAGA, with at most 0.2; and WKRC, with at most 0.2. The figure for HKAA is at most 0.2. As for RKRW, the “one-hybrid fitness for binding NBS DNA” value is at most 0.2. The figure for DYWG is at most 0.2; for SFRA it is at most 0.2; for PNCA it is at most 0.2. The figure for KTVM is at most 0.2. Then TEHL, with at most 0.2; and QAKS, with 0.618; and CSPA, with at most 0.2.

Turning to TDLR, the “one-hybrid fitness for binding NBS DNA” value is at most 0.2.

DDNI: the “one-hybrid fitness for binding NBS DNA” value is at most 0.2. Then NTSA, with at most 0.2. Turning to DFRR, the “one-hybrid fitness for binding NBS DNA” value is at most 0.2. With YVYG, the “one-hybrid fitness for binding NBS DNA” value was at most 0.2.

With HMCW, the “one-hybrid fitness for binding NBS DNA” value is at most 0.2. The figure for ANFC is at most 0.2; for QFNV it is at most 0.2; for TMAD it is at most 0.2.

For GCRG, the “one-hybrid fitness for binding NBS DNA” value is at most 0.2. Regarding MWGR, the “one-hybrid fitness for binding NBS DNA” value is at most 0.2. The figure for QCNG is at most 0.2; for LPSN it is at most 0.2. HTYL: the “one-hybrid fitness for binding NBS DNA” value is at most 0.2. The figure for QPDY is at most 0.2; for YLEF it is at most 0.2. On to PDAY, for which the “one-hybrid fitness for binding NBS DNA” value is at most 0.2.

With LSCF, the “one-hybrid fitness for binding NBS DNA” value is at most 0.2. The figure for QSQL is at most 0.2; for CAGS it is at most 0.2. For the variant AVKF, the “one-hybrid fitness for binding NBS DNA” value is at most 0.2. The figure for CDPV is at most 0.2; for RREG it is at most 0.2; for IKKT it is at most 0.2. For CKPA, the “one-hybrid fitness for binding NBS DNA” value was at most 0.2. MVPF: the “one-hybrid fitness for binding NBS DNA” value is at most 0.2.

For the variant LTVF, the “one-hybrid fitness for binding NBS DNA” value was at most 0.2. Then PFYV, with at most 0.2; and TRRS, with 0.38; and HYKS, with at most 0.2.

For VMWR, the “one-hybrid fitness for binding NBS DNA” value is at most 0.2. Then TTGL, with at most 0.2; and ETNN, with at most 0.2; and SCHG, with at most 0.2. For STMV, the “one-hybrid fitness for binding NBS DNA” value is at most 0.2.

Turning to KRHC, the “one-hybrid fitness for binding NBS DNA” value is at most 0.2.

For TAPW, the “one-hybrid fitness for binding NBS DNA” value was at most 0.2. The figure for RCWI is at most 0.2; for IAKK it is at most 0.2; for SRSW it is at most 0.2. The figure for MTHD is at most 0.2. As for DGNV, the “one-hybrid fitness for binding NBS DNA” value was at most 0.2. On to FNRH, for which the “one-hybrid fitness for binding NBS DNA” value is at most 0.2. For LVVI, the “one-hybrid fitness for binding NBS DNA” value was at most 0.2. The figure for FREG is at most 0.2; for SPES it is at most 0.2; for SDLR it is at most 0.2. The figure for NCPG is at most 0.2; for TVAS it is at most 0.2; for SVTK it is at most 0.2. PGSA: the “one-hybrid fitness for binding NBS DNA” value was at most 0.2. Then TWKW, with at most 0.2; and LVRT, with at most 0.2. As for CNQG, the “one-hybrid fitness for binding NBS DNA” value is at most 0.2. For the variant PAST, the “one-hybrid fitness for binding NBS DNA” value is at most 0.2. As for WTDV, the “one-hybrid fitness for binding NBS DNA” value is at most 0.2. The figure for GDQE is at most 0.2.

Consider QVTE, for which the “one-hybrid fitness for binding NBS DNA” value is at most 0.2.

With QACH, the “one-hybrid fitness for binding NBS DNA” value was at most 0.2. The figure for RWGT is at most 0.2; for VLPN it is at most 0.2.

For ILNT, the “one-hybrid fitness for binding NBS DNA” value was at most 0.2.

Turning to RILI, the “one-hybrid fitness for binding NBS DNA” value was at most 0.2. Turning to MESR, the “one-hybrid fitness for binding NBS DNA” value was at most 0.2.

As to VTRL, the “one-hybrid fitness for binding NBS DNA” value is at most 0.2. Take SENR: the “one-hybrid fitness for binding NBS DNA” value is at most 0.2. Then SRLH, with at most 0.2.
